# Measured values from the supplement of paper PMC8728848.
# Some of the results follow.
# B1: LCA (Lens culinaris), P02870 (protein)
# chain: MASLQTQMISFYLIFLSILLTTIFFFKVNSTETTSFSITKFSPDQKNLIFQGDGYTTKGKLTLTKAVKSTVGRALYSTPIHIWDRDTGNVANFVTSFTFVIDAPSSYNVADEFTFFIAPVDTKPQTGGGYLGVFNSKEYDKTSQTVAVEFDTFYNAAWDPSNKERHIGIDVNSIKSVNTKSWNLQNGERANVVIAFNAATNVLTVTLTYPNSLEEENVTSYTLNEVVPLKDVVPEWVRIGFSATTGAEFAAHEVHSWSFHSELGGTSSSKQAADA
# Columns and labels:
# Assay in all cases: glycan array binding signal (z-score within array); higher = stronger binding
# Conditions in all cases: glycan notation: IUPAC condensed, linker removed
# [1] = molecular target: GlcA3S(b1-3)Gal(b1-4)GlcNAc(b1-3)Gal(b1-4)Glc
# Outline: (§1)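 The binding signal is a Z-score computed within each array. Data were drawn from 3228 arrays in the Consortium for Functional Glycomics database, restricted to those with a known protein sequence. Scores were averaged over arrays of the same protein sequence at different concentrations or buffers, and over linkers, and negative values can be taken as non-binding.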
# [2] = molecular target: GlcNAc(a1-3)Gal(b1-4)GlcNAc
# Outline: as §1
# [3] = molecular target: GlcNAc(a1-4)Gal(b1-3)GlcNAc
# Outline: as §1
# [4] = molecular target: GlcNAc(a1-4)Gal(b1-4)GalNAc
# Outline: as §1
# [5] = molecular target: GlcNAc(a1-4)Gal(b1-4)GlcNAc
# Outline: as §1
# [6] = molecular target: GlcNAc(a1-4)Gal(b1-4)GlcNAc(b1-3)Gal(b1-4)Glc
# Outline: as §1
# [7] = molecular target: GlcNAc(a1-4)Gal(b1-4)GlcNAc(b1-3)Gal(b1-4)GlcNAc
# Outline: as §1
# [8] = molecular target: GlcNAc(a1-4)Gal(b1-4)GlcNAc(b1-3)Gal(b1-4)GlcNAc(b1-3)Gal(b1-4)GlcNAc
# Outline: as §1
# [9] = molecular target: GlcNAc(a1-4)Gal(b1-4)GlcNAc(b1-3)Gal(b1-4)[Fuc(a1-3)]GlcNAc(b1-3)Gal(b1-4)[Fuc(a1-3)]GlcNAc
# Outline: as §1
# [10] = molecular target: GlcNAc(a1-6)Gal(b1-4)GlcNAc
# Outline: as §1
# [11] = molecular target: GlcNAc(b1-2)Gal(b1-3)GalNAc
# Outline: as §1
# [12] = molecular target: GlcNAc(b1-2)Man(a1-3)[GlcNAc(b1-2)Man(a1-6)]Man(b1-4)GlcNAc(b1-4)GlcNAc
# Outline: as §1
# [13] = molecular target: GlcNAc(b1-2)Man(a1-3)[GlcNAc(b1-2)Man(a1-6)]Man(b1-4)GlcNAc(b1-4)[Fuc(a1-6)]GlcNAc
# Outline: as §1
# [14] = molecular target: GlcNAc(b1-2)Man(a1-3)[GlcNAc(b1-4)][GlcNAc(b1-2)Man(a1-6)]Man(b1-4)GlcNAc(b1-4)GlcNAc
# Outline: as §1
# [15] = molecular target: GlcNAc(b1-2)Man(a1-3)[GlcNAc(b1-4)][GlcNAc(b1-2)Man(a1-6)]Man(b1-4)GlcNAc(b1-4)[Fuc(a1-6)]GlcNAc
# Outline: as §1
# [16] = molecular target: GlcNAc(b1-2)[GlcNAc(b1-4)]Man(a1-3)[GlcNAc(b1-2)Man(a1-6)]Man(b1-4)GlcNAc(b1-4)GlcNAc
# Outline: as §1
# [17] = molecular target: GlcNAc(b1-2)[GlcNAc(b1-4)]Man(a1-3)[GlcNAc(b1-4)][GlcNAc(b1-2)Man(a1-6)]Man(b1-4)GlcNAc(b1-4)GlcNAc
# Outline: as §1
# [18] = molecular target: GlcNAc(b1-2)[GlcNAc(b1-4)]Man(a1-3)[GlcNAc(b1-4)][GlcNAc(b1-2)[GlcNAc(b1-6)]Man(a1-6)]Man(b1-4)GlcNAc(b1-4)GlcNAc
# Outline: as §1
# [19] = molecular target: GlcNAc(b1-2)[GlcNAc(b1-4)]Man(a1-3)[GlcNAc(b1-4)][GlcNAc(b1-2)[GlcNAc(b1-6)]Man(a1-6)]Man(b1-4)GlcNAc(b1-4)[Fuc(a1-6)]GlcNAc
# Outline: as §1
# [20] = molecular target: GlcNAc(b1-2)[GlcNAc(b1-6)]Man(a1-6)[GlcNAc(b1-2)Man(a1-3)]Man(b1-4)GlcNAc(b1-4)GlcNAc
# Outline: as §1
# [21] = molecular target: GlcNAc(b1-2)[GlcNAc(b1-6)]Man(a1-6)[GlcNAc(b1-2)Man(a1-3)]Man(b1-4)GlcNAc(b1-4)[Fuc(a1-6)]GlcNAc
# Outline: as §1
# [22] = molecular target: GlcNAc(b1-2)[GlcNAc(b1-6)]Man(a1-6)[GlcNAc(b1-4)][GlcNAc(b1-2)Man(a1-3)]Man(b1-4)GlcNAc(b1-4)GlcNAc
# Outline: as §1
# [23] = molecular target: GlcNAc(b1-3)Fuc
# Outline: as §1
# [24] = molecular target: GlcNAc(b1-3)Gal
# Outline: as §1
# [25] = molecular target: GlcNAc(b1-3)Gal(b1-3)GalNAc
# Outline: as §1
# [26] = molecular target: GlcNAc(b1-3)Gal(b1-4)Glc
# Outline: as §1
# [27] = molecular target: GlcNAc(b1-3)Gal(b1-4)GlcNAc
# Outline: as §1
# [28] = molecular target: GlcNAc(b1-3)Gal(b1-4)GlcNAc(b1-2)Man(a1-3)[GlcNAc(b1-3)Gal(b1-4)GlcNAc(b1-2)Man(a1-6)]Man(b1-4)GlcNAc(b1-4)GlcNAc
# Outline: as §1
# [29] = molecular target: GlcNAc(b1-3)Gal(b1-4)GlcNAc(b1-2)Man(a1-3)[GlcNAc(b1-3)Gal(b1-4)GlcNAc(b1-2)Man(a1-6)]Man(b1-4)GlcNAc(b1-4)[Fuc(a1-6)]GlcNAc
# Outline: as §1
# [30] = molecular target: GlcNAc(b1-3)Gal(b1-4)GlcNAc(b1-2)[GlcNAc(b1-3)Gal(b1-4)GlcNAc(b1-6)]Man(a1-6)[GlcNAc(b1-3)Gal(b1-4)GlcNAc(b1-2)Man(a1-3)]Man(b1-4)GlcNAc(b1-4)GlcNAc
# Outline: as §1
# [31] = molecular target: GlcNAc(b1-3)Gal(b1-4)GlcNAc(b1-3)Gal(b1-4)GlcNAc
# Outline: as §1
# [32] = molecular target: GlcNAc(b1-3)Gal(b1-4)GlcNAc(b1-3)Gal(b1-4)GlcNAc(b1-2)Man(a1-3)[GlcNAc(b1-3)Gal(b1-4)GlcNAc(b1-3)Gal(b1-4)GlcNAc(b1-2)Man(a1-6)]Man(b1-4)GlcNAc(b1-4)GlcNAc
# Outline: as §1
# [33] = molecular target: GlcNAc(b1-3)Gal(b1-4)GlcNAc(b1-3)Gal(b1-4)GlcNAc(b1-2)Man(a1-3)[GlcNAc(b1-3)Gal(b1-4)GlcNAc(b1-3)Gal(b1-4)GlcNAc(b1-2)Man(a1-6)]Man(b1-4)GlcNAc(b1-4)[Fuc(a1-6)]GlcNAc
# Outline: as §1
# [34] = molecular target: GlcNAc(b1-3)Gal(b1-4)GlcNAc(b1-3)Gal(b1-4)GlcNAc(b1-2)[GlcNAc(b1-3)Gal(b1-4)GlcNAc(b1-3)Gal(b1-4)GlcNAc(b1-6)]Man(a1-6)[GlcNAc(b1-3)Gal(b1-4)GlcNAc(b1-3)Gal(b1-4)GlcNAc(b1-2)Man(a1-3)]Man(b1-4)GlcNAc(b1-4)[Fuc(a1-6)]GlcNAc
# Outline: as §1
# [35] = molecular target: GlcNAc(b1-3)Gal(b1-4)GlcNAc(b1-3)Gal(b1-4)GlcNAc(b1-3)Gal(b1-4)GlcNAc(b1-2)Man(a1-3)[GlcNAc(b1-3)Gal(b1-4)GlcNAc(b1-3)Gal(b1-4)GlcNAc(b1-3)Gal(b1-4)GlcNAc(b1-2)Man(a1-6)]Man(b1-4)GlcNAc(b1-4)GlcNAc
# Outline: as §1
# [36] = molecular target: GlcNAc(b1-3)Gal(b1-4)GlcNAc(b1-3)Gal(b1-4)GlcNAc(b1-3)Gal(b1-4)GlcNAc(b1-2)Man(a1-3)[GlcNAc(b1-3)Gal(b1-4)GlcNAc(b1-3)Gal(b1-4)GlcNAc(b1-3)Gal(b1-4)GlcNAc(b1-2)Man(a1-6)]Man(b1-4)GlcNAc(b1-4)[Fuc(a1-6)]GlcNAc
# Outline: as §1
# [37] = molecular target: GlcNAc(b1-3)Gal(b1-4)GlcNAc(b1-3)Gal(b1-4)GlcNAc(b1-3)Gal(b1-4)GlcNAc(b1-2)[GlcNAc(b1-3)Gal(b1-4)GlcNAc(b1-3)Gal(b1-4)GlcNAc(b1-3)Gal(b1-4)GlcNAc(b1-6)]Man(a1-6)[GlcNAc(b1-3)Gal(b1-4)GlcNAc(b1-3)Gal(b1-4)GlcNAc(b1-3)Gal(b1-4)GlcNAc(b1-2)Man(a1-3)]Man(b1-4)GlcNAc(b1-4)[Fuc(a1-6)]GlcNAc
# Outline: as §1
binder,measurement,setting,value
B1,glycan array binding signal (z-score),[1],-0.228
same,glycan array binding signal (z-score),[2],-0.217
same,glycan array binding signal (z-score),[3],-0.248
same,glycan array binding signal (z-score),[4],-0.181
same,glycan array binding signal (z-score),[5],-0.226
same,glycan array binding signal (z-score),[6],-0.135
same,glycan array binding signal (z-score),[7],-0.237
same,glycan array binding signal (z-score),[8],-0.24
same,glycan array binding signal (z-score),[9],-0.191
same,glycan array binding signal (z-score),[10],-0.218
same,glycan array binding signal (z-score),[11],-0.161
same,glycan array binding signal (z-score),[12],2.04
same,glycan array binding signal (z-score),[13],5.54
same,glycan array binding signal (z-score),[14],-0.039
same,glycan array binding signal (z-score),[15],0.424
same,glycan array binding signal (z-score),[16],-0.169
same,glycan array binding signal (z-score),[17],-0.212
same,glycan array binding signal (z-score),[18],-0.287
same,glycan array binding signal (z-score),[19],-0.258
same,glycan array binding signal (z-score),[20],-0.183
same,glycan array binding signal (z-score),[21],8.45
same,glycan array binding signal (z-score),[22],-0.173
same,glycan array binding signal (z-score),[23],-0.226
same,glycan array binding signal (z-score),[24],-0.224
same,glycan array binding signal (z-score),[25],-0.217
same,glycan array binding signal (z-score),[26],-0.234
same,glycan array binding signal (z-score),[27],-0.216
same,glycan array binding signal (z-score),[28],-0.201
same,glycan array binding signal (z-score),[29],5.29
same,glycan array binding signal (z-score),[30],-0.118
same,glycan array binding signal (z-score),[31],-0.199
same,glycan array binding signal (z-score),[32],0.031
same,glycan array binding signal (z-score),[33],3.29
same,glycan array binding signal (z-score),[34],2.72
same,glycan array binding signal (z-score),[35],-0.199
same,glycan array binding signal (z-score),[36],3.65
same,glycan array binding signal (z-score),[37],2.77
